# The other results are listed elsewhere or left out. For some assays here: At the low end of the ranking the order means little.
# Key:
# PXR (Homo sapiens) = molecular target: T1, PXR (Homo sapiens) (UniProt O75469); conditions: 270 nM, no RXRa, PBS pH 7.4, 2% milk, 0.02% Triton X-100, 1 mM DTT, BSA, 0.4 mg/ml salmon testes DNA; double strand, one strand shown
# T1 sequence: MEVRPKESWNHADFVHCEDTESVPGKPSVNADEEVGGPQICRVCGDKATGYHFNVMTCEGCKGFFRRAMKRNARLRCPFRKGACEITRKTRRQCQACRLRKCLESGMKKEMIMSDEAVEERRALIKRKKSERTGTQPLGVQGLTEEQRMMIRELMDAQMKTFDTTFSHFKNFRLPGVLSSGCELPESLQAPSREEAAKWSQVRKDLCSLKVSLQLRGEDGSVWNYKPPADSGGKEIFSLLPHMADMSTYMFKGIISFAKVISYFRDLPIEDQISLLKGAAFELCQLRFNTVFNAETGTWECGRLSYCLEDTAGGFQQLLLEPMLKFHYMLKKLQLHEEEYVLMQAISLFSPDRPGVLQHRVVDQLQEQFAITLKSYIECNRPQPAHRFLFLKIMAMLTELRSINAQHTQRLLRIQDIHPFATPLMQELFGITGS
# RARb (Homo sapiens) = molecular target: T2, RARb (Homo sapiens) (UniProt P10826); conditions: 270 nM, no RXRa, PBS pH 7.4, 2% milk, 0.02% Triton X-100, 1 mM DTT, BSA, 0.4 mg/ml salmon testes DNA; double strand, one strand shown
# T2 sequence: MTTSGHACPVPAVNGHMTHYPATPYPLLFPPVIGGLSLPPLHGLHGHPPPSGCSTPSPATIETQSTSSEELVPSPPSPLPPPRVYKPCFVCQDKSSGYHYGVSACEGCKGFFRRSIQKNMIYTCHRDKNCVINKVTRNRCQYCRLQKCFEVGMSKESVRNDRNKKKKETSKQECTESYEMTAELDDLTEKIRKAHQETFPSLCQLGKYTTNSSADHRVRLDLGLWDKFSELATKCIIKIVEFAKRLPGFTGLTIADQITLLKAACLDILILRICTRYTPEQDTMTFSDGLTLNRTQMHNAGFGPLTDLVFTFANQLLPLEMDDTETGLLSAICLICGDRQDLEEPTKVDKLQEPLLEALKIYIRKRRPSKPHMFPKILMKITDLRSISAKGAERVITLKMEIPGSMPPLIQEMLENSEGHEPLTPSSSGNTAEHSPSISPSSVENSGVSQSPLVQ
# RARg (Homo sapiens) = molecular target: T3, RARg (Homo sapiens) (UniProt P13631); conditions: 270 nM, no RXRa, PBS pH 7.4, 2% milk, 0.02% Triton X-100, 1 mM DTT, BSA, 0.4 mg/ml salmon testes DNA; double strand, one strand shown
# T3 sequence: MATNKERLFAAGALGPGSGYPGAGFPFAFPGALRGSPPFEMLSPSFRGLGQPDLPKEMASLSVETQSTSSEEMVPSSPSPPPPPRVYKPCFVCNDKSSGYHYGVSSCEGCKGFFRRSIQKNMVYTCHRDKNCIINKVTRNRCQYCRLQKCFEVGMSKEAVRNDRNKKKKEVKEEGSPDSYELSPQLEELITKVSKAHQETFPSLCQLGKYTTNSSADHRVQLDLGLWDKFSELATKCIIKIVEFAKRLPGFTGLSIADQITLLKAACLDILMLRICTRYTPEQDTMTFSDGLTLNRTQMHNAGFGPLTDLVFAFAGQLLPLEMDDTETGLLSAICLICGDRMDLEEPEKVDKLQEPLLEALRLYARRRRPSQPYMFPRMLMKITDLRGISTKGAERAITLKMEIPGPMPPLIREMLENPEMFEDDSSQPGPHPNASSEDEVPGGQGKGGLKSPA
# [1] = system: PPARg-DBDmut:RXRa PPARg:K132A + PPARg:R137A; conditions: 270 nM : 90 nM RXRa, PBS pH 7.4, 2% milk, 0.02% Triton X-100, 1 mM DTT, BSA, 0.4 mg/ml salmon testes DNA; double strand, one strand shown
# THRa (Homo sapiens) = molecular target: T4, THRa (Homo sapiens) (UniProt P10827); conditions: 90 nM, no RXRa, PBS pH 7.4, 2% milk, 0.02% Triton X-100, 1 mM DTT, BSA, 0.4 mg/ml salmon testes DNA; double strand, one strand shown
# T4 sequence: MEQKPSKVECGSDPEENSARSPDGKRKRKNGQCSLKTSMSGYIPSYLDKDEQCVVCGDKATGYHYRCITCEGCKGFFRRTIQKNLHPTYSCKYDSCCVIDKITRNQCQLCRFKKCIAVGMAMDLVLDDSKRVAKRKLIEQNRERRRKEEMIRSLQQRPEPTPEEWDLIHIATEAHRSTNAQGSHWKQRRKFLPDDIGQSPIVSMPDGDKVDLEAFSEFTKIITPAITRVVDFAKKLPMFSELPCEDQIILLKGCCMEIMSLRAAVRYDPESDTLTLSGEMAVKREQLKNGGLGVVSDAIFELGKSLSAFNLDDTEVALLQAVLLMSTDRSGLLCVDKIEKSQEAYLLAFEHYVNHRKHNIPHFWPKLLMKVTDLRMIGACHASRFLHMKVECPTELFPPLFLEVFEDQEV
# VDR (Homo sapiens) = molecular target: T5, VDR (Homo sapiens) (UniProt P11473); conditions: 270 nM, no RXRa, PBS pH 7.4, 2% milk, 0.02% Triton X-100, 1 mM DTT, BSA, 0.4 mg/ml salmon testes DNA; double strand, one strand shown
# T5 sequence: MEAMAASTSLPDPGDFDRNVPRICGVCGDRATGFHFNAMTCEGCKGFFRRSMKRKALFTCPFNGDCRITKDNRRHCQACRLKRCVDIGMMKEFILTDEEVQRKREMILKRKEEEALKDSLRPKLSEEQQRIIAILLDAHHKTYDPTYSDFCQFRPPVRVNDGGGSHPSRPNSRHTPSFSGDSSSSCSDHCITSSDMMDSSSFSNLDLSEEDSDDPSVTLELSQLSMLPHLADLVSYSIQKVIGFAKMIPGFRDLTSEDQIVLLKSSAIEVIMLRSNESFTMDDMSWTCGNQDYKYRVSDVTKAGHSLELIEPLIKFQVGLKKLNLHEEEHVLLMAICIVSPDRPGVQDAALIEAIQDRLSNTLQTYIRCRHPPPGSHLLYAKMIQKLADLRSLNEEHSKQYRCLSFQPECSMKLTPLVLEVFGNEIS
sequence,measurement,setting,value
GCTGGCAATGGCTGGACCACTCCAAGAACTGTGTGGGCGATTGACAGCGTAGAATGAAGG,binding signal (PBM z-score against 500 random probes),PXR (Homo sapiens),-0.99
same,binding signal (PBM z-score against 500 random probes),RARb (Homo sapiens),-0.64
GCAACAGGCAGCTGGCTGTGCACGGCAACCATGGGCGCGATTGACAGCGTAGAATGAAGG,binding signal (PBM z-score against 500 random probes),RARb (Homo sapiens),-1.73
GCTCCCTGCCCAGTTCTGTGCAGGGTGTGCGTGTCTGCGATTGACAGCGTAGAATGAAGG,binding signal (PBM z-score against 500 random probes),RARg (Homo sapiens),-2.17
GCGTGCGAGGGAAGGAGCATGCTTCATTGATCCCATGCGATTGACAGCGTAGAATGAAGG,binding signal (PBM z-score against 500 random probes),RARg (Homo sapiens),-0.58
GCCAATGCCAGCTACCAGGAGGCTGAGGTGTGAGAGGCGATTGACAGCGTAGAATGAAGG,binding signal (PBM z-score against 500 random probes),PXR (Homo sapiens),-0.47
GCCTGTGGAATCCAACATGCCAAATGCTTGCTTGAGGCGATTGACAGCGTAGAATGAAGG,binding signal (PBM z-score against 500 random probes),PXR (Homo sapiens),-0.58
GCCAAAGACAGCTTTGCAAGGCCACTTCTGTTTGCTGCGATTGACAGCGTAGAATGAAGG,binding signal (PBM z-score against 500 random probes),RARb (Homo sapiens),-0.15
GCCAAGAATCAGACTCTTAAGTAGATGCCTGTAGCTGCGATTGACAGCGTAGAATGAAGG,binding signal (PBM z-score against 500 random probes),RARg (Homo sapiens),0.12
GCAGGTCAAAGTCAGCCAGCTAGTAGGTCAGGGAGCGCGATTGACAGCGTAGAATGAAGG,binding signal (PBM z-score against 500 random probes),[1],0.91
GCGCCTTGTCCTTCTGCAGCTGCTGGTGCAGCCCAGGCGATTGACAGCGTAGAATGAAGG,binding signal (PBM z-score against 500 random probes),RARg (Homo sapiens),-0.65
same,binding signal (PBM z-score against 500 random probes),THRa (Homo sapiens),0.05
GCTGCAGAGAGGCCACCAGCCAGCCCAGACCCATGCGCGATTGACAGCGTAGAATGAAGG,binding signal (PBM z-score against 500 random probes),THRa (Homo sapiens),-0.14
GCCCAAGATCTTGCCACTGCACTCCAGCCTGGATGAGCGATTGACAGCGTAGAATGAAGG,binding signal (PBM z-score against 500 random probes),RARb (Homo sapiens),0.21
GCACAGCAAAGAGGCCAGCATGGCTAGAGCAGATCAGCGATTGACAGCGTAGAATGAAGG,binding signal (PBM z-score against 500 random probes),RARb (Homo sapiens),-0.76
GCTGCTGACTTGCTGGTTAGAGGGAACACATTCCCAGCGATTGACAGCGTAGAATGAAGG,binding signal (PBM z-score against 500 random probes),RARg (Homo sapiens),-0.18
GCGCAGTGGGTCACTTGAGACCAGCCTGGGCAACGCGCGATTGACAGCGTAGAATGAAGG,binding signal (PBM z-score against 500 random probes),VDR (Homo sapiens),-0.92

# — publication PMC6555819
